Assay results from PubChem BioAssay AID588591 (National Center for Advancing Translational Sciences (NCATS), 2011).
Hit rate of the full screen: of about 390,000 compounds, about 4,700 (1.2%) were called active. Inconclusive results, whose numbers are uncertain, are shown with a selection of clear calls. Calls follow the shape of the dose curve; as a rule, active = well fitted inhibition curve with a large enough effect; inconclusive = small, poorly fitted or top-dose-only effect, or another doubt; inactive = no such curve, though single readings can be large or run the other way. Where the call is inconclusive, the potency comes from a doubtful curve fit.

Target: DNA polymerase eta (Homo sapiens) (UniProt Q9Y253)
UniProt Q9Y253, sequence (Q9Y253 whole entry, looked up): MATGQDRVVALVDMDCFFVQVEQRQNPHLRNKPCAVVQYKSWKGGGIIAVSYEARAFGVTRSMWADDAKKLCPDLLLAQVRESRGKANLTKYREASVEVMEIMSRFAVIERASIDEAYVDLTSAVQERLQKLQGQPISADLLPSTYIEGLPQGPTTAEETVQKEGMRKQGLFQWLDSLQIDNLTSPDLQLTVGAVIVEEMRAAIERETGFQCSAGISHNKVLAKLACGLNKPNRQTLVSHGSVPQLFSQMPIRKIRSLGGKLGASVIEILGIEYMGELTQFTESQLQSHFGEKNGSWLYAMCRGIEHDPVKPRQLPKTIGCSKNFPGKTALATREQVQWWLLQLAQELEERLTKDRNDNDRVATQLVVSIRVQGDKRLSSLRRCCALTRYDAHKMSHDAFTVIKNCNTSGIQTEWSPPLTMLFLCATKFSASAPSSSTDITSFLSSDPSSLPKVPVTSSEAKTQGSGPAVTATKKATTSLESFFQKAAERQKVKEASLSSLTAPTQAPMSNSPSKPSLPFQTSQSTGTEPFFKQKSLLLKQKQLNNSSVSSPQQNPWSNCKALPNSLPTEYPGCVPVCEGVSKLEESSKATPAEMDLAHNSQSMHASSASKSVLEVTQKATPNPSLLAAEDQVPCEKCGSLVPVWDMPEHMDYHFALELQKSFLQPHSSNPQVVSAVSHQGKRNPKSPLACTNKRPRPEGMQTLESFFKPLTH
Assay: qHTS for Inhibitors of Polymerase Eta
Details: recombinant Pol eta, fluorescent DNA replication assay; series mostly up to 114 µM; activity change, negative = inhibition: at the top concentration
Summary of the method: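 Fluorescent replication assay: 50 nM final substrate added after a 15 min room-temperature compound preincubation with 10 nM enzyme. Signal taken at 0 min and again at 10 min.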
% is scaled to controls: 0 for no effect and ±100 for the full control effect; potency is read from the fitted curve at half-maximal effect; tags tell the direction and shape of the fitted curve.

| SMILES | Potency | activity change, negative = inhibition |
| --- | --- | --- |
| COc1ccc(CCNC(=O)c2ccc3nc(-c4ccco4)c(-c4ccco4)nc3c2)cc1OC | active: 79.4 µM | – |
| O=C(O)c1ccc(Oc2ccc(S(=O)(=O)c3ccc(C(=O)O)c(C(=O)O)c3)cc2)cc1 | active: 17.8 µM | – |
| CCN(CC(=O)Nc1ccc2c(c1)OCCO2)C(=O)/C=C/c1cc(Br)ccc1OC | – | inactive: -23.5% |
| Cc1ccc(NS(=O)(=O)c2ccc3c(c2)C(=O)c2ccccc2C3=O)c(C)c1 | inconclusive: 25.1 µM [inhibitor, partial curve, poor fit] | – |
| CC(C)S(=O)(=O)C1=NSC2=NC(=O)/C(=C\c3ccc(-c4ccccc4)o3)C(=N)N21 | active: 17.8 µM | – |
| CCOC(=O)C(C)Sc1nc(-c2ccco2)cc(C(F)(F)F)c1C#N (stereo unspecified) | – | inactive: -16.1% |
| O=C(O)c1ccc(COc2ccc3ccccc3c2/C=C2/NC(=O)N(Cc3ccc(F)cc3)C2=O)cc1 | active: 31.6 µM | – |
| COc1ccc(OC)c(Nc2nc(-c3ccc(O)c(O)c3)cs2)c1 | inconclusive: 14.1 µM [inhibitor, partial curve, poor fit] | – |
| Cc1cc(C(=O)CCC(=O)N(C)CC(=O)Nc2ccc(OC(F)(F)F)cc2)c(C)s1 | inconclusive: 25.1 µM [inhibitor, single point] | – |
| CCC(C)n1c(=O)c2sccc2n2c(CCCC(=O)Nc3ccc(F)cc3)nnc12 (stereo unspecified) | inconclusive: 100 µM [inhibitor, partial curve, poor fit] | – |
| CCOC(=O)c1[nH]c2ccc(Cl)cc2c1NC(=O)c1nonc1C | inconclusive: 15.8 µM [inhibitor, partial curve, poor fit] | – |
| O=C1c2ccccc2-c2onc3ccc(N4CCCC4)c1c23 | inconclusive: 79.4 µM [inhibitor, partial curve] | – |
| O=C(NCC(c1ccco1)S(=O)(=O)c1ccc(Cl)cc1)c1ccc(C(F)(F)F)cc1 (stereo unspecified) | – | inactive: -15.9% |
| O=C1CCC(C(=O)Nc2ccccc2)N1 (stereo unspecified) | – | inactive: -15.1% |
| CC(C)(C)S(=O)N1Cc2ccc(CO)cc2[C@@H]1CCO (stereo partly specified) | – | inactive: -5.43% |
| COc1cc(O)cc2c1[C@@H]1Oc3c(ccc(O)c3CC=C(C)C)[C@@H]1CO2 | inconclusive: 89.1 µM [inhibitor, partial curve, poor fit] | – |
| COc1cc(/C=C/C(=O)OCC(=O)NC(=O)C2COc3ccccc3O2)ccc1OC(F)F (stereo unspecified) | – | inactive: -24.4% |
| O=C(Nc1cc(C(=O)Nc2ccccc2C(=O)O)cc(C(=O)Nc2ccccc2C(=O)O)c1)c1ccccc1 | active: 14.1 µM | – |
| CC(C)(C)NC(=O)c1ccc2nc(CCc3ccccc3)oc2c1 | – | inactive: -12.4% |
| Cc1ccc(Cl)cc1NC(=O)Cn1ncc2c(C)n(Cc3ccccc3F)c(C)c2c1=O | inconclusive: 79.4 µM [inhibitor, partial curve] | – |
| COc1ccc(-c2nc(C#N)c(N3CCOCC3)o2)cc1OC | inconclusive: 31.6 µM [inhibitor, partial curve, poor fit] | – |

| SMILES | Potency | activity change, negative = inhibition |
| --- | --- | --- |
| COc1cc(/C=C/[N+](=O)[O-])ccc1OCc1cccc(C(=O)O)c1 | active: 31.6 µM | – |
| CCC(=O)N1CCc2cc(Br)c(S(=O)(=O)NCCN3CCCCC3CC)cc21 (stereo unspecified) | inconclusive: 35.5 µM [inhibitor, partial curve, poor fit] | – |
| O=C(CN1CCN(S(=O)(=O)c2ccc(F)c(Cl)c2)CC1)N1CCc2ccccc21 | inconclusive: 39.8 µM [inhibitor, partial curve, poor fit] | – |
| CCOc1ccc(C(c2c(O)cc(C)n(Cc3ccco3)c2=O)N2CCN(c3ccccc3)CC2)cc1 (stereo unspecified) | – | inactive: -13.6% |
| COc1ccc(NC(=O)CSC2=Nc3ccccc3C3=NC(CC(=O)NCc4ccc5c(c4)OCO5)C(=O)N23)cc1 (stereo unspecified) | inconclusive: 89.1 µM [inhibitor, single point] | – |
| Cn1nnnc1SCCCNCc1cc(Cl)ccc1OCc1ccccc1F | inconclusive: 0.891 µM [inhibitor, partial curve, poor fit] | – |
| Cc1ccc(C)c(-n2c3nc(=O)[nH]c(=O)c-3cc3cc([N+](=O)[O-])ccc32)c1 | active: 12.6 µM | – |
| CC(=O)N1CCN(c2nc(-c3ccco3)c3c(c2C#N)CC(C)(C)SC3)CC1 | inconclusive: 25.1 µM [inhibitor, partial curve] | – |
| O=C(CN1C(=O)CC(c2ccco2)Sc2ccccc21)Nc1ccccc1F (stereo unspecified) | inconclusive: 79.4 µM [inhibitor, partial curve] | – |
| CCOC(=O)N1CCC(N2Cc3cccc(C(=O)Nc4ccc(S(=O)(=O)N(CC)CC)cc4)c3C2=O)CC1 | inconclusive: 79.4 µM [inhibitor, partial curve, poor fit] | – |
| Cc1cc(C)c2sc(NC(=O)c3ccc(N4C(=O)CCC4=O)cc3)nc2c1 | – | inactive: -14% |
| CCN(c1ccc(OC)cc1)S(=O)(=O)N1CCCC(C(=O)NCc2ccccc2Br)C1 (stereo unspecified) | inconclusive: 79.4 µM [inhibitor, partial curve, poor fit] | – |
| O=C(Cn1nnc(-c2ccc(F)cc2)n1)Nc1cccc(S(=O)(=O)N2CCCC2)c1 | inconclusive: 79.4 µM [inhibitor, partial curve, poor fit] | – |
| CC(=O)OC1(C(F)(F)F)Oc2ccccc2NC1=O (stereo unspecified) | – | inactive: -4.5% |
| CC(=O)N1C(=O)/C(=C2\SC(=S)N(NC(=O)c3ccc(O)cc3)C2=O)c2ccccc21 | inconclusive: 2.82 µM [inhibitor, full curve, poor fit] | – |
| COc1cc(/C=C2/C(=N)N3C(=NC2=O)SN=C3S(C)(=O)=O)ccc1OC(=O)c1ccco1 | active: 50.1 µM | – |
| O=C(N=NC(=O)c1ccco1)c1ccc2c(O)n(N3C(=O)c4ccccc4C3=O)c(O)c2c1 | inconclusive: 22.4 µM [inhibitor, single point] | – |
| Cc1ccc(NC(=O)c2cc(-c3ccco3)nc3ccccc23)cc1S(=O)(=O)N1CCOCC1 | inconclusive: 89.1 µM [inhibitor, single point] | – |
| CN(C)CCNCCCNc1c2ccccc2nc2cccc([N+](=O)[O-])c12 | inconclusive: 17.8 µM [inhibitor, partial curve, poor fit] | – |
| O=C(CN(C(=O)CCC(=O)Nc1nccs1)c1cccc(F)c1)NCc1ccccc1 | inconclusive: 100 µM [inhibitor, partial curve, poor fit] | – |
